# Experimental data: the supplement of paper PMC3334620
# Whole data set: some 33,000 sequences, median “E-score (-0.5 to 0.5)” near -0.013, cut for the highest 2% near 0.3. The list shows a part of the results.
# Molecular target: T1, Msn1 (UniProt P22148)
# T1 sequence: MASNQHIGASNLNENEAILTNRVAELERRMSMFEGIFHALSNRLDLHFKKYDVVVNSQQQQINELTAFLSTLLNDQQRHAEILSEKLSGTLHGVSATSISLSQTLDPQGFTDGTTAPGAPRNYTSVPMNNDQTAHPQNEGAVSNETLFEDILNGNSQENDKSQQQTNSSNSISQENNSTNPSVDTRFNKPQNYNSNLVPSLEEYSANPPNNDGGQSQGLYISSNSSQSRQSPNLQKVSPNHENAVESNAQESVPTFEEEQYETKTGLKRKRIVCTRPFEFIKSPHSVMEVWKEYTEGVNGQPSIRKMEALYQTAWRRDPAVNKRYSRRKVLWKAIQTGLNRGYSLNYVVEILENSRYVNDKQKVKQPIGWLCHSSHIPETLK
# Assay: PBM E-score (8-mer binding enrichment) (E-score (-0.5 to 0.5)); higher = stronger / more preferred TF binding; most listed sequences are background and not binding sites
# Details: protein concentration: 200 nM; construct: GST-full length
# How it was run: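 PURExpress in vitro transcription/translation supplied GST-tagged yeast transcription factors, either full-length or DNA-binding domain. Applied at about 100-200 nM to universal all-10-mer Agilent arrays double-stranded by primer extension, the bound protein was detected with fluorescent anti-GST. E-scores, modified Wilcoxon-Mann-Whitney statistics, were given by the Universal PBM Analysis Suite to ungapped eight-base words pooled with their reverse complements after masliner normalisation.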
row,Sequence,PBM E-score
1,CGTAGAAC,-0.119
2,ATAGAAGC,0.144
3,ACAATCTC,0.0114
4,AACTCACC,-0.253
5,GACGTTTA,0.164
6,CTGTCTAC,-0.0627
7,GAAAAATC,0.136
8,AGGATGTA,-0.0489
9,ACTGGCCG,-0.185
10,AAAATCGG,0.052
11,ACCTGTAT,-0.108
12,GTCCTGGA,0.265
13,CCGCGTTC,-0.0241
14,GACGATGA,-0.00724
15,CAGGGGGC,-0.419
16,AGCGGTAG,-0.115
17,GCCCGCGA,-0.0477
18,CATATCGG,0.0952
19,AGTTCCCA,0.0695
20,ACAGGTGA,-0.0906
21,AGGGTCCG,-0.204
22,CTTCTCCA,-0.166
23,CAAATATA,0.159
24,CAGGACGC,0.00853
25,TGTGTCAA,0.0135

row,Sequence,PBM E-score
1,CGCGATGC,-0.247
2,CAGGTCGA,-0.00157
3,ACGAAACC,0.0241
4,AACTCGTC,0.0439
5,ACTTCTCG,0.103
6,AAGACTGT,-0.113
7,GGATTCGA,-0.0658
8,AAGTTGAG,0.055
9,AGAAAAAA,0.169
10,ATCCTTGG,0.0526
11,CCATTTAA,0.057
12,CACTCAGC,-0.133
13,GCACCGAA,0.0642
14,AATTCGAG,0.114
15,AGGGGCAA,-0.174
16,AAGTGATG,-0.0462
17,AGTGTTGA,0.047
18,ATCCATTC,0.0746
19,AAAGCGAA,0.0314
20,CATTGGGG,-0.125
21,CAGGGTTC,-0.0341
22,AGTCTAGG,-0.217
23,CGTACTGC,0.0272
24,GGTATTAC,0.0172
25,GGGACCGA,0.0171

row,Sequence,PBM E-score
1,AAACAAGG,-0.141
2,AATACCCA,-0.0704
3,GTAAGACA,0.305
4,TATTTAAA,0.136
5,AGTTCCAA,0.0681
6,AATTGCAC,-0.0279
7,CGCATGCA,0.0245
8,AGGCCGTA,-0.0196
9,AGCGGTGA,-0.0747
10,AGTAATAA,0.155
11,ACTAAGAG,0.0641
12,CAGAACAG,-0.239
13,GATTTCGA,-0.0823
14,GAAATGCC,0.00283
15,AGAAAGAC,-0.00893
16,AATAGTGC,-0.00646
17,CAGTACAC,0.252
18,CTACATCC,-0.0147
19,CATAAGTC,0.264
20,CCCCAACC,-0.085
21,GGACGTCC,0.263
22,CCCGGGAG,-0.147
23,GACCAATC,0.0895
24,ACTGCTCT,0.0249
25,GTACTGCA,0.0551

row,Sequence,PBM E-score
1,GTGTCAGA,0.232
2,GACGTGCC,-0.23
3,TCCCTGCA,-0.0437
4,GTTGAGAA,-0.0356
5,ATTAACGG,0.0729
6,ATGGCCTA,0.00251
7,AGGGGGTC,-0.332
8,CTATGCAG,0.0179
9,AAAATTGT,0.357
10,AAGAGGAT,-0.127
11,ACAAGATC,0.0398
12,GAGGGCAA,-0.129
13,TACTGGCA,-0.118
14,AACCTACA,0.0149
15,CACCTAGA,-0.147
16,TACTCGGA,0.223
17,ATGCGACG,-0.249
18,AGTCATTC,0.00351
19,AGGAACAC,0.0604
20,CTTACGAA,0.0988
21,AGGTAGTA,-0.056
22,ACGCAGCG,-0.285
23,CAGCCCGA,-0.173
24,ATTCATCA,-0.0736
25,ACAGCCAG,-0.0522

row,Sequence,PBM E-score
1,ACTCTTCC,-0.113
2,CGATGGAA,-0.137
3,AACACTGG,-0.0304
4,ACGCGGCC,-0.0902
5,CGGAAGGC,-0.115
6,GAAGACCA,-0.102
7,ATAAGAGC,0.0327
8,GAGTAGAA,-0.0105
9,AGCCGTAA,-0.00403
10,CCTGCTAA,-0.206
11,GCGCACCA,-0.0442
12,TCTAAACA,-0.0184
13,GAGCAGCC,-0.151
14,GTATGTCA,0.35
15,GCGAATGA,0.13
16,ACGTTTCT,0.00409
17,AATCCAAC,-0.126
18,CTCTCCAC,-0.332
19,ACGACCCT,-0.295
20,CACCTCTG,-0.0825
21,AGGTGGTA,-0.0458
22,CGCGATCA,-0.0968
23,CCTATTAC,-0.101
24,CTGTGTCA,0.02
25,AGATGCCC,-0.173

row,Sequence,PBM E-score
1,AAGCAAAG,-0.064
2,GCAGTAGA,0.0106
3,CGACGAAC,0.0816
4,ACTTTCTG,0.163
5,CGCTTATA,0.0306
6,CGTCTTTC,-0.122
7,AGACTCCT,-0.125
8,TCACGAAA,0.197
9,ATCTAGGC,-0.14
10,ACGCTTCG,-0.0757
11,CGCCGGCC,-0.0553
12,CACTCCAC,-0.0525
13,TGCCTCAA,-0.14
14,AGACTCCC,-0.253
15,CAACCTGC,-0.00454
16,ACTACCGC,0.112
17,ACCGCGGC,0.014
18,CCCTTCGG,-0.0863
19,AAGGCTCG,-0.214
20,GCTCCCAA,-0.22
21,AGCAGTTG,-0.0796
22,AAACGTGA,0.021
23,GCTCGCCA,-0.112
24,GCCGCAGA,-0.0562
25,CATTTCAG,-0.0324

row,Sequence,PBM E-score
1,ACTGGTAA,0.0484
2,GGCCACAC,-0.102
3,TCGTTGCA,0.0106
4,AAGCCAAT,0.0816
5,CACAGGCG,-0.208
6,TAACAAAA,0.228
7,ACATTGTA,0.143
8,GTCCGCCA,0.0788
9,TTGCTAAA,-0.102
10,AATGCTTG,-0.094
11,GCAGATGC,-0.195
12,GGAAACAC,0.0884
13,ACGTGGCT,-0.138
14,AGAGTTGC,0.108
15,GCAAGGCA,-0.273
16,CGGGCGTC,0.0597
17,CTCGATTA,-0.0362
18,ATATGGCC,-0.169
19,GAAAACTA,0.0346
20,AGCTAAAT,-0.105
21,CGGAGAGC,-0.0906
22,CAAGGGTA,-0.241
